Patent publication US20060062780A1

Biological target: MOG-reactive B-cell receptor on B cells of anti-MOG transgenic mice
Assay: cell-based or functional assay

B-cell numbers (CD19) in control cultures, ex vivo, splenocytes of TH mice (% of total live lymphocytes): 12
B-cell numbers (CD19) in cultures treated with 10 µg/ml eMOG-Fc for 16 h, ex vivo, splenocytes of TH mice (% of total live lymphocytes): 8
B1: eMOG-Fc fusion protein (de-immunized MOG-Fc) (Fc fusion)
chain: GQFRVIGPRHPIRALVGDEVELPCRISPGKNATGMEVGWYRPPFSRVVHLYRNGKDQDGDQAPEYRGRTELLKDAIGEGKVTLRIRNVRFSDEGGFTCFFRDHAYQEEAAMELKVEDPFYWVSPGSG[human IgG1 Fc not shown]
